# Results taken from PMC4336329 (PLoS ONE, 2015).
# Among all 310,000 compounds or so, about 14,000 (4.5%) showed an effect of 50% or more. The effect is printed as a negative number. The list shows a part of the results.
# Molecular target: human ether-à-go-go-related gene (hERG) potassium channel (human, UniProt Q12809)
# Assay: primary screen, population patch clamp on CHO cells stably expressing hERG
# 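Also: peak tail current of the secondary pulse compared with the same well before compound.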
# Sequence of human ether-à-go-go-related gene (hERG) potassium channel (Q12809 whole entry, looked up): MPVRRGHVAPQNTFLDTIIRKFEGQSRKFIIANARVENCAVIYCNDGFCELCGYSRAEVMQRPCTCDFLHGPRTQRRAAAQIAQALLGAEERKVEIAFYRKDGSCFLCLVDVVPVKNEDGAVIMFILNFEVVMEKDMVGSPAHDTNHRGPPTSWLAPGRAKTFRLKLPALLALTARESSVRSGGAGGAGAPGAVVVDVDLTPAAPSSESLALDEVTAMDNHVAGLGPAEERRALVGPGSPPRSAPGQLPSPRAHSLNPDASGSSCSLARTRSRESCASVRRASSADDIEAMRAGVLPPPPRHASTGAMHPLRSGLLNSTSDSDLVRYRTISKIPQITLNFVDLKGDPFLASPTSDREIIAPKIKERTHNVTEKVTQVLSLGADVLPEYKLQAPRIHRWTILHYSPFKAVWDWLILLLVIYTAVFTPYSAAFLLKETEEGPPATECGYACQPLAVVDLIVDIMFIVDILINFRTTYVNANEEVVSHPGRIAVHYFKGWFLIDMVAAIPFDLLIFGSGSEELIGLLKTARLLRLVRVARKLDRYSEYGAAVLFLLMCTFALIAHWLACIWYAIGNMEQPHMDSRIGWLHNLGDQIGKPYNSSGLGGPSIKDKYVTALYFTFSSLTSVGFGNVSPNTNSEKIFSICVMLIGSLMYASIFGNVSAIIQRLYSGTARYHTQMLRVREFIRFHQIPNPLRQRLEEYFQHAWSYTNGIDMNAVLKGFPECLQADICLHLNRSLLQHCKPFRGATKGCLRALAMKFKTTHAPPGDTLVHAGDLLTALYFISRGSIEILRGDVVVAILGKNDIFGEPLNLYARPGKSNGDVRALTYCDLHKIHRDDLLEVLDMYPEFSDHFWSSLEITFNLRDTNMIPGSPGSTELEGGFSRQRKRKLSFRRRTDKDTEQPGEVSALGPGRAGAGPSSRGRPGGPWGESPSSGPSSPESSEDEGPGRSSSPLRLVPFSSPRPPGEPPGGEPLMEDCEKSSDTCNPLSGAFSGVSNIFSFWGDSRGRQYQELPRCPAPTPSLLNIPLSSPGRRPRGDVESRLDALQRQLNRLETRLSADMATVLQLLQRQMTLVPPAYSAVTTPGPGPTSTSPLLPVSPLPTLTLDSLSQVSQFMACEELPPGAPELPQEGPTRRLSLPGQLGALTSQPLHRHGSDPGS
row,SMILES,"hERG current change (%, negative = inhibition) at 10uM [%]"
1,COc1ccccc1-n1cc(-c2ccccc2)c2c(=S)nc[nH]c21,16.5
2,COCc1[nH][nH]c(=O)c1C=Nc1ccc(F)cc1F,0.597
3,CCOC(=O)c1cnc(-c2ccccc2)nc1Oc1ccc(C)cc1,12.2
4,O=c1cc(C(F)(F)F)[nH]c(=O)n1C1CCCCC1,-15.1
5,COc1ccc(S(=O)(=O)N2CCC(C(=O)N[C@@H](C)C(=O)N3CCCCCC3)CC2)cc1,-17.1
6,Cc1ccc(CN(CC(=O)NCc2ccccn2)S(=O)(=O)c2ccccc2)cc1,-23.9
7,CCOC(=O)CSc1ccc(C(=O)NCCN2CCOCC2)cc1[N+](=O)[O-],12.6
8,C=CC[N+](C)(C)CCCNC(=O)/C=N/O.[I-],13.4
9,COCCN(Cc1ccccc1)C(=O)c1cccc(S(=O)(=O)N2CCCc3ccccc32)c1,-21.2
10,CN(CC(=O)Nc1cccc(F)c1)C(=O)c1ccc2c(c1)NC(=O)CS2,-12.1
11,COc1ccc(C(=O)Nc2oc(-c3ccccc3)c(-c3ccccc3)c2C#N)cc1OC,9.54
12,COC(=O)c1c(C)[nH]c(C(=O)C(C)OC(=O)c2cnc(C)cn2)c1C (stereo not drawn),10.5
13,Cc1occc1C(=O)NCCCCc1ccccc1,9.01
14,c1ccc2[nH]c(SCc3cn4ccccc4n3)nc2c1,-28.3
15,O=C(Nc1ccc(OCC(F)(F)C(F)F)c(C(F)(F)F)c1)c1ccc(Cl)cc1,4.62
16,Cc1ccsc1/C=N/NC(=O)c1nnn(-c2nonc2N)c1C,-0.0286
17,O=C(CN1C(=O)C2C3C=CC(C3)C2C1=O)Nc1ccc(S(=O)(=O)N2CCCCC2)cc1 (stereo not drawn),-7.32
18,Cc1onc(-c2ccccc2)c1C(=O)N1CCCN2C(=O)c3ccccc3C21 (stereo not drawn),-25.9
19,CCC/C=C1/CCCOC(C(=O)NCCNCCO)(C(F)(F)F)C1 (stereo not drawn),20.4
20,CCOC(=O)c1sc(/N=C/C2=C(O)CC(C)(C)CC2=O)c(C(=O)OCC)c1C,-4.12
21,CCOC(=O)C1CCN(c2ncnc3c2cnn3-c2ccc(Cl)cc2)CC1,-0.685
22,CCCCn1c(=O)[nH]c(=O)c2c1nc(-c1ccc(OCC)cc1)n2CC,1.27
23,COC(=O)c1ccc(CNC(=O)COC(=O)CCN2C(=O)C3CC=CCC3C2=O)cc1 (stereo not drawn),0.667
24,COc1ccc(Cl)c2c1[nH]c1nc(SCc3cccnc3)nnc12,22.1
